# The other results are listed elsewhere or left out.
# B1: Cohesin-hDC-ASGPR (Homo sapiens) (protein)
# chain: LDDLDAVRIKVDTVNAKPGDTVRIPVRFSGIPSKGIANCDFVYSYDPNVLEIIEIEPGDIIVDPNPDKSFDTAVYPDRKIIVFLFAEDSGTGAYAITKDGVFATIVAKVKEGAPNGLSVIKFVEVGGFANNDLVEQKTQFFDGGANVGDTTEPATPTTPVTTPTTTDDLDAASQNSKFQRDLVTLRTDFSNFTSNTVAEIQALTSQGSSLEETIASLKAEVEGFKQERQAGVSELQEHTTQKAHLGHCPHCPSVCVPVHSEMLLRVQQLVQDLKKLTCQVATLNNNASTEGTCCPVNWVEHQDSCYWFSHSGMSWAEAEKYCQLKNAHLVVINSREEQNFVQKYLGSAYTWMGLSDPEGAWKWVDGTDYATGFQNWKPGQPDDWQGHGLGGGEDCAHFHPDGRWNDDVCQRPYHWVCEAGLGQTSQESHHHHHH
# Experiments:
# Test in all cases: glycan array binding signal (z-score within array); higher = stronger binding
# Conditions in all cases: glycan notation: IUPAC condensed, linker removed
# [1] = molecular target: Glc(b1-6)Glc
# Method in brief: (§1)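 The binding signal is a Z-score computed within each array. Data were drawn from 3228 arrays in the Consortium for Functional Glycomics database, restricted to those with a known protein sequence. Scores were averaged over arrays of the same protein sequence at different concentrations or buffers, and over linkers, and negative values can be taken as non-binding.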
# [2] = molecular target: GlcA(b1-3)Gal
# Method in brief: as §1
# [3] = molecular target: GlcA(b1-3)GlcNAc
# Method in brief: as §1
# [4] = molecular target: GlcA(b1-6)Gal
# Method in brief: as §1
# [5] = molecular target: GlcA3S(b1-3)Gal(b1-4)GlcNAc(b1-2)Man
# Method in brief: as §1
# [6] = molecular target: GlcA3S(b1-3)Gal(b1-4)GlcNAc(b1-3)Gal(b1-4)Glc
# Method in brief: as §1
# [7] = molecular target: GlcNAc(a1-3)Gal(b1-4)GlcNAc
# Method in brief: as §1
# [8] = molecular target: GlcNAc(a1-4)Gal(b1-3)GlcNAc
# Method in brief: as §1
# [9] = molecular target: GlcNAc(a1-4)Gal(b1-4)GalNAc
# Method in brief: as §1
# [10] = molecular target: GlcNAc(a1-4)Gal(b1-4)GlcNAc
# Method in brief: as §1
# [11] = molecular target: GlcNAc(a1-4)Gal(b1-4)GlcNAc(b1-3)Gal(b1-4)Glc
# Method in brief: as §1
# [12] = molecular target: GlcNAc(a1-4)Gal(b1-4)GlcNAc(b1-3)Gal(b1-4)GlcNAc
# Method in brief: as §1
# [13] = molecular target: GlcNAc(a1-4)Gal(b1-4)GlcNAc(b1-3)Gal(b1-4)GlcNAc(b1-3)Gal(b1-4)GlcNAc
# Method in brief: as §1
# [14] = molecular target: GlcNAc(a1-4)Gal(b1-4)GlcNAc(b1-3)Gal(b1-4)[Fuc(a1-3)]GlcNAc(b1-3)Gal(b1-4)[Fuc(a1-3)]GlcNAc
# Method in brief: as §1
# [15] = molecular target: GlcNAc(a1-6)Gal(b1-4)GlcNAc
# Method in brief: as §1
# [16] = molecular target: GlcNAc(b1-2)Gal(b1-3)GalNAc
# Method in brief: as §1
# [17] = molecular target: GlcNAc(b1-2)Man(a1-3)[GlcNAc(b1-2)Man(a1-6)]Man(b1-4)GlcNAc(b1-4)GlcNAc
# Method in brief: as §1
# [18] = molecular target: GlcNAc(b1-2)Man(a1-3)[GlcNAc(b1-2)Man(a1-6)]Man(b1-4)GlcNAc(b1-4)[Fuc(a1-6)]GlcNAc
# Method in brief: as §1
# [19] = molecular target: GlcNAc(b1-2)Man(a1-3)[GlcNAc(b1-4)][GlcNAc(b1-2)Man(a1-6)]Man(b1-4)GlcNAc(b1-4)GlcNAc
# Method in brief: as §1
# [20] = molecular target: GlcNAc(b1-2)Man(a1-3)[GlcNAc(b1-4)][GlcNAc(b1-2)Man(a1-6)]Man(b1-4)GlcNAc(b1-4)[Fuc(a1-6)]GlcNAc
# Method in brief: as §1
# [21] = molecular target: GlcNAc(b1-2)[GlcNAc(b1-4)]Man(a1-3)[GlcNAc(b1-2)Man(a1-6)]Man(b1-4)GlcNAc(b1-4)GlcNAc
# Method in brief: as §1
# [22] = molecular target: GlcNAc(b1-2)[GlcNAc(b1-4)]Man(a1-3)[GlcNAc(b1-4)][GlcNAc(b1-2)Man(a1-6)]Man(b1-4)GlcNAc(b1-4)GlcNAc
# Method in brief: as §1
# [23] = molecular target: GlcNAc(b1-2)[GlcNAc(b1-4)]Man(a1-3)[GlcNAc(b1-4)][GlcNAc(b1-2)[GlcNAc(b1-6)]Man(a1-6)]Man(b1-4)GlcNAc(b1-4)GlcNAc
# Method in brief: as §1
# [24] = molecular target: GlcNAc(b1-2)[GlcNAc(b1-4)]Man(a1-3)[GlcNAc(b1-4)][GlcNAc(b1-2)[GlcNAc(b1-6)]Man(a1-6)]Man(b1-4)GlcNAc(b1-4)[Fuc(a1-6)]GlcNAc
# Method in brief: as §1
# [25] = molecular target: GlcNAc(b1-2)[GlcNAc(b1-6)]Man(a1-6)[GlcNAc(b1-2)Man(a1-3)]Man(b1-4)GlcNAc(b1-4)GlcNAc
# Method in brief: as §1
# [26] = molecular target: GlcNAc(b1-2)[GlcNAc(b1-6)]Man(a1-6)[GlcNAc(b1-2)Man(a1-3)]Man(b1-4)GlcNAc(b1-4)[Fuc(a1-6)]GlcNAc
# Method in brief: as §1
# [27] = molecular target: GlcNAc(b1-2)[GlcNAc(b1-6)]Man(a1-6)[GlcNAc(b1-4)][GlcNAc(b1-2)Man(a1-3)]Man(b1-4)GlcNAc(b1-4)GlcNAc
# Method in brief: as §1
# [28] = molecular target: GlcNAc(b1-3)Fuc
# Method in brief: as §1
# [29] = molecular target: GlcNAc(b1-3)Gal
# Method in brief: as §1
# [30] = molecular target: GlcNAc(b1-3)Gal(b1-3)GalNAc
# Method in brief: as §1
# [31] = molecular target: GlcNAc(b1-3)Gal(b1-4)Glc
# Method in brief: as §1
# [32] = molecular target: GlcNAc(b1-3)Gal(b1-4)GlcNAc
# Method in brief: as §1
# [33] = molecular target: GlcNAc(b1-3)Gal(b1-4)GlcNAc(b1-2)Man(a1-3)[GlcNAc(b1-3)Gal(b1-4)GlcNAc(b1-2)Man(a1-6)]Man(b1-4)GlcNAc(b1-4)GlcNAc
# Method in brief: as §1
# [34] = molecular target: GlcNAc(b1-3)Gal(b1-4)GlcNAc(b1-2)Man(a1-3)[GlcNAc(b1-3)Gal(b1-4)GlcNAc(b1-2)Man(a1-6)]Man(b1-4)GlcNAc(b1-4)[Fuc(a1-6)]GlcNAc
# Method in brief: as §1
# [35] = molecular target: GlcNAc(b1-3)Gal(b1-4)GlcNAc(b1-2)[GlcNAc(b1-3)Gal(b1-4)GlcNAc(b1-6)]Man(a1-6)[GlcNAc(b1-3)Gal(b1-4)GlcNAc(b1-2)Man(a1-3)]Man(b1-4)GlcNAc(b1-4)GlcNAc
# Method in brief: as §1
# [36] = molecular target: GlcNAc(b1-3)Gal(b1-4)GlcNAc(b1-3)Gal(b1-4)GlcNAc
# Method in brief: as §1
# [37] = molecular target: GlcNAc(b1-3)Gal(b1-4)GlcNAc(b1-3)Gal(b1-4)GlcNAc(b1-2)Man(a1-3)[GlcNAc(b1-3)Gal(b1-4)GlcNAc(b1-3)Gal(b1-4)GlcNAc(b1-2)Man(a1-6)]Man(b1-4)GlcNAc(b1-4)GlcNAc
# Method in brief: as §1
binder,measurement,setting,value
B1,glycan array binding signal (z-score),[1],-0.063
same,glycan array binding signal (z-score),[2],-0.505
same,glycan array binding signal (z-score),[3],-0.456
same,glycan array binding signal (z-score),[4],-0.497
same,glycan array binding signal (z-score),[5],-0.516
same,glycan array binding signal (z-score),[6],-0.515
same,glycan array binding signal (z-score),[7],-0.362
same,glycan array binding signal (z-score),[8],-0.515
same,glycan array binding signal (z-score),[9],-0.515
same,glycan array binding signal (z-score),[10],-0.516
same,glycan array binding signal (z-score),[11],-0.508
same,glycan array binding signal (z-score),[12],-0.475
same,glycan array binding signal (z-score),[13],-0.506
same,glycan array binding signal (z-score),[14],-0.444
same,glycan array binding signal (z-score),[15],-0.439
same,glycan array binding signal (z-score),[16],-0.345
same,glycan array binding signal (z-score),[17],-0.389
same,glycan array binding signal (z-score),[18],-0.488
same,glycan array binding signal (z-score),[19],-0.463
same,glycan array binding signal (z-score),[20],-0.508
same,glycan array binding signal (z-score),[21],-0.498
same,glycan array binding signal (z-score),[22],-0.471
same,glycan array binding signal (z-score),[23],-0.498
same,glycan array binding signal (z-score),[24],-0.51
same,glycan array binding signal (z-score),[25],-0.378
same,glycan array binding signal (z-score),[26],-0.503
same,glycan array binding signal (z-score),[27],-0.497
same,glycan array binding signal (z-score),[28],-0.443
same,glycan array binding signal (z-score),[29],-0.503
same,glycan array binding signal (z-score),[30],-0.446
same,glycan array binding signal (z-score),[31],-0.501
same,glycan array binding signal (z-score),[32],-0.507
same,glycan array binding signal (z-score),[33],-0.48
same,glycan array binding signal (z-score),[34],-0.301
same,glycan array binding signal (z-score),[35],-0.358
same,glycan array binding signal (z-score),[36],-0.504
same,glycan array binding signal (z-score),[37],-0.165
